Experimental data from the RNAGym collection of RNA variant scans (doi:10.1101/gad.245936.114).
Variants at the floor of the assay are shown more often than the library holds them.

B1: tRNA (parent)
chain: CUCUCGGUAGCCAAGUUGGUUUAAGGCGCAAGACUUUAAUUUAUCACUACGAAAUCUUGAGAUCGGGCGUUCGACUCGCCCCCGGGAGAUUUUUUCCUCGAGCAA

Variants of: B1
Experiment: nonsense suppression (GFP-seq) (ratio to wild type); higher = more function; SUP4oc tRNA, yeast GFP reporter sort-seq
In short: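 Yeast were grown in raffinose/galactose medium with 80 mg/L adenine, each strain bearing a genome-integrated ochre-suppressor tRNA variant from a ~3% random-mutation library, a galactose-driven GFP ochre reporter, and RFP. After sorting into GFP/RFP bins, every bin was sequenced on an Illumina platform at phred ≥30. The GFPSEQ value, a measure of nonsense suppression, is the weighted bin median GFP/RFP relative to the unmutated parent tRNA, using each variant's estimated cell share per bin as the weight. Only variants with ≥100 reads and ≥30 cells were included.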

**Q.** Which nonsense suppression does the source give for C3A C5U G7A A9G A14U G59U G86C here?
**A.** ≤ 0.026

**Q.** Which nonsense suppression does the source give for C3A C11G C12G G69U A89U here?
**A.** ≤ 0.026

**Q.** For C3A C11G U57A U76A C79U, which nonsense suppression is on record?
**A.** ≤ 0.026

**Q.** With C3A C12A A23G C80G as the variant, how does the nonsense suppression read?
**A.** ≤ 0.026

**Q.** Which nonsense suppression does the source give for C3A C12A U70C here?
**A.** ≤ 0.026

**Q.** With C3A C12G as the variant, how does the nonsense suppression read?
**A.** ≤ 0.026

**Q.** Which nonsense suppression does the source give for C3A C12G C27G G88U here?
**A.** ≤ 0.026

**Q.** With C3A C12G C80A as the variant, how does the nonsense suppression read?
**A.** ≤ 0.026

**Q.** For C3A C12U G15U U71A U76A, which nonsense suppression is on record?
**A.** ≤ 0.026

**Q.** For C3A C27A, which nonsense suppression is on record?
**A.** ≤ 0.026

**Q.** Which nonsense suppression does the source give for C3A C29A G73A here?
**A.** ≤ 0.026

**Q.** Which nonsense suppression does the source give for C3A C29A G84U here?
**A.** ≤ 0.026

**Q.** Which nonsense suppression does the source give for C3A C29A U58G A87G here?
**A.** ≤ 0.026

**Q.** With C3A C29A U70G as the variant, how does the nonsense suppression read?
**A.** ≤ 0.026

**Q.** For C3A C29G, which nonsense suppression is on record?
**A.** ≤ 0.026

**Q.** Which nonsense suppression does the source give for C3A C29G A60C C81G here?
**A.** ≤ 0.026

**Q.** Which nonsense suppression does the source give for C3A C29G G66A C81G G85C here?
**A.** ≤ 0.026

**Q.** With C3A C34A U58A as the variant, how does the nonsense suppression read?
**A.** ≤ 0.026

**Q.** Which nonsense suppression does the source give for C3A C56A here?
**A.** ≤ 0.026

**Q.** For C3A C56A G65A, which nonsense suppression is on record?
**A.** ≤ 0.026

**Q.** Which nonsense suppression does the source give for C3A C79U here?
**A.** ≤ 0.026

**Q.** With C3A C81G as the variant, how does the nonsense suppression read?
**A.** ≤ 0.026

**Q.** Which nonsense suppression does the source give for C3A G6A U71G here?
**A.** ≤ 0.026

**Q.** For C3A G6C G28U, which nonsense suppression is on record?
**A.** ≤ 0.026

**Q.** With C3A G6U as the variant, how does the nonsense suppression read?
**A.** ≤ 0.026

**Q.** Which nonsense suppression does the source give for C3A G6U G7A here?
**A.** ≤ 0.026

**Q.** With C3A G6U U35G U71A as the variant, how does the nonsense suppression read?
**A.** ≤ 0.026

**Q.** For C3A G7U, which nonsense suppression is on record?
**A.** ≤ 0.026

**Q.** With C3A G7U A23C U55C A62C as the variant, how does the nonsense suppression read?
**A.** ≤ 0.026

**Q.** For C3A G7U A24G C68G G78U, which nonsense suppression is on record?
**A.** ≤ 0.026

**Q.** For C3A G10A A30U, which nonsense suppression is on record?
**A.** ≤ 0.026

**Q.** With C3A G10U U21A C79U as the variant, how does the nonsense suppression read?
**A.** ≤ 0.026

**Q.** With C3A G19C as the variant, how does the nonsense suppression read?
**A.** ≤ 0.026

**Q.** With C3A G19U as the variant, how does the nonsense suppression read?
**A.** ≤ 0.026

**Q.** Which nonsense suppression does the source give for C3A G19U A24G here?
**A.** ≤ 0.026

**Q.** Which nonsense suppression does the source give for C3A G19U C81A here?
**A.** ≤ 0.026

**Q.** Which nonsense suppression does the source give for C3A G28A G73A A74G here?
**A.** ≤ 0.026

**Q.** Which nonsense suppression does the source give for C3A G28U G65C here?
**A.** ≤ 0.026

**Q.** For C3A G32A, which nonsense suppression is on record?
**A.** ≤ 0.026

**Q.** With C3A G59U G78C as the variant, how does the nonsense suppression read?
**A.** ≤ 0.026

**Q.** With C3A G65A as the variant, how does the nonsense suppression read?
**A.** ≤ 0.026

**Q.** For C3A G65A C68U G86U, which nonsense suppression is on record?
**A.** ≤ 0.026

**Q.** For C3A G66C, which nonsense suppression is on record?
**A.** ≤ 0.026

**Q.** For C3A G66C G86A, which nonsense suppression is on record?
**A.** ≤ 0.026

**Q.** With C3A G66U A87U as the variant, how does the nonsense suppression read?
**A.** ≤ 0.026

**Q.** With C3A G66U G67U A87G as the variant, how does the nonsense suppression read?
**A.** ≤ 0.026

**Q.** With C3A G67U as the variant, how does the nonsense suppression read?
**A.** ≤ 0.026

**Q.** Which nonsense suppression does the source give for C3A G69A here?
**A.** ≤ 0.026

**Q.** Which nonsense suppression does the source give for C3A G69A A87C here?
**A.** ≤ 0.026

**Q.** For C3A G69U, which nonsense suppression is on record?
**A.** ≤ 0.026

**Q.** With C3A G73C G85A as the variant, how does the nonsense suppression read?
**A.** ≤ 0.026

**Q.** For C3A G78U, which nonsense suppression is on record?
**A.** ≤ 0.026

**Q.** For C3A G84C, which nonsense suppression is on record?
**A.** ≤ 0.026

**Q.** For C3A G85C, which nonsense suppression is on record?
**A.** ≤ 0.026

**Q.** Which nonsense suppression does the source give for C3A U4A A24U here?
**A.** ≤ 0.026

**Q.** For C3A U4A A62G, which nonsense suppression is on record?
**A.** ≤ 0.026

**Q.** With C3A U4A G10C A30C as the variant, how does the nonsense suppression read?
**A.** ≤ 0.026

**Q.** Which nonsense suppression does the source give for C3A U4C here?
**A.** 0.191

**Q.** With C3A U4C A62G as the variant, how does the nonsense suppression read?
**A.** ≤ 0.026

**Q.** For C3A U4C C12G U16G G69U, which nonsense suppression is on record?
**A.** ≤ 0.026

**Q.** With C3A U4G A14G U20C A24G as the variant, how does the nonsense suppression read?
**A.** ≤ 0.026

**Q.** Which nonsense suppression does the source give for C3A U4G C75U G86A here?
**A.** ≤ 0.026

**Q.** With C3A U4G G15U C80A as the variant, how does the nonsense suppression read?
**A.** ≤ 0.026

**Q.** With C3A U8A A23C G69C G73A as the variant, how does the nonsense suppression read?
**A.** ≤ 0.026

**Q.** Which nonsense suppression does the source give for C3A U8A G10A U63C here?
**A.** ≤ 0.026

**Q.** Which nonsense suppression does the source give for C3A U8C U22G A74G here?
**A.** ≤ 0.026

**Q.** Which nonsense suppression does the source give for C3A U8G here?
**A.** ≤ 0.026

**Q.** Which nonsense suppression does the source give for C3A U16A G66C C68A here?
**A.** ≤ 0.026

**Q.** With C3A U16C A30C U58A U70G U71C as the variant, how does the nonsense suppression read?
**A.** ≤ 0.026

**Q.** With C3A U16G C29U G61U U71G as the variant, how does the nonsense suppression read?
**A.** ≤ 0.026

**Q.** With C3A U16G G84U as the variant, how does the nonsense suppression read?
**A.** ≤ 0.026

**Q.** With C3A U17A A23G U35G C77A as the variant, how does the nonsense suppression read?
**A.** ≤ 0.026

**Q.** For C3A U17A G59U, which nonsense suppression is on record?
**A.** ≤ 0.026

**Q.** For C3A U17C, which nonsense suppression is on record?
**A.** ≤ 0.026

**Q.** Which nonsense suppression does the source give for C3A U17G here?
**A.** ≤ 0.026

**Q.** For C3A U17G A31U C34A, which nonsense suppression is on record?
**A.** ≤ 0.026

**Q.** With C3A U20A U22G C56A C80G as the variant, how does the nonsense suppression read?
**A.** ≤ 0.026

**Q.** For C3A U20C G25C, which nonsense suppression is on record?
**A.** ≤ 0.026

**Q.** For C3A U20C U55C, which nonsense suppression is on record?
**A.** ≤ 0.026

**Q.** Which nonsense suppression does the source give for C3A U20G A33G here?
**A.** ≤ 0.026

**Q.** With C3A U20G C56G as the variant, how does the nonsense suppression read?
**A.** ≤ 0.026

**Q.** Which nonsense suppression does the source give for C3A U21A G69C here?
**A.** ≤ 0.026

**Q.** With C3A U22C G26U C80A as the variant, how does the nonsense suppression read?
**A.** ≤ 0.026
